# Assay results from the supplement of paper PMC4166925.
# ± gives the standard deviation of the averaged measurements. Over roughly 33,000 sequences, “E-score (dimensionless, -0.5 to 0.5)” has its median near -0.049; the highest 2% begin near 0.37. This is one part of the list.
# Test system: T1, PmTbr T-box DNA-binding domain (GST fusion)
# T1 sequence: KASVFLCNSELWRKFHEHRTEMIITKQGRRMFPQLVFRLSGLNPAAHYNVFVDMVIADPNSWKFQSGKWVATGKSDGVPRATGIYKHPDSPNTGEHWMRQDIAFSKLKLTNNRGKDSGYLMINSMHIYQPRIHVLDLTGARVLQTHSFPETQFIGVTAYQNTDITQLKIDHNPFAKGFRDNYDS
# Experiment: PBM E-score of 8-mer (E-score (dimensionless, -0.5 to 0.5)); Tbr is Tbrain of the sea star Patiria miniata (Pm) or the sea urchin Strongylocentrotus purpuratus (Sp); higher = stronger binding preference; most listed sequences are background and not binding sites
# Conditions: the construct has about 5 more residues each side
# Procedure: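 Universal protein-binding microarray (Agilent AMADID 016060, 60-bp probes with a 35-bp variable region) incubated with 200 nM GST-fused Patiria miniata Tbr T-box DNA-binding domain (residues 272-466) in PBS pH 7.5. Scored for every ungapped 8-mer (given with its reverse complement) by the Universal PBM Analysis Suite as E-score (modified Wilcoxon-Mann-Whitney enrichment, range -0.5 to 0.5; >0.45 counts as bound) and Z-score of median probe intensity. Two replicate arrays (datasets 1 and 2).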
row,Sequence,PBM E-score of 8-mer
1,ATAAGCTC,-0.0944 ± 0.13
2,ACTTCGCT,0.121 ± 0.023
3,CATAGTTA,0.0714 ± 0.0011
4,CTGTCGGC,0.137 ± 0.02
5,AGCGTGGC,0.0403 ± 0.0048
6,AATCTATG,-0.219 ± 0.0052
7,CCAGCTGC,-0.0939 ± 0.066
8,GATTTGAC,0.143 ± 0.074
9,TATGGTGA,0.074 ± 0.043
10,CGATCCCG,-0.137 ± 0.016
11,GAGGGGCC,-0.226 ± 0.01
12,CTCCGCCA,-0.0826 ± 0.079
13,AATATACT,-0.236 ± 0.063
14,CCTTACAA,-0.0184 ± 0.028
15,AGTAGTAG,-0.0705 ± 0.015
16,ACTTGCCC,0.0722 ± 0.024
17,GCTCAGCC,-0.289 ± 0.078
18,GGGACCAA,-0.186 ± 0.027
19,CAAACTAA,-0.115 ± 0.05
20,AAGGATTC,-0.18 ± 0.066
21,ACCTTCCC,-0.0548 ± 0.0098
22,CTAGCACC,0.449 ± 0.006
23,AAGTTCAG,-0.258 ± 0.043
24,GACTGGTA,0.0439 ± 0.029
25,AGCACTTG,0.242 ± 0.011

row,Sequence,PBM E-score of 8-mer
1,AAACGCAG,-0.00768 ± 0.0065
2,AGTTAAGA,-0.162 ± 0.076
3,CGCTGACC,-0.0927 ± 0.15
4,GACCATAC,-0.219 ± 0.028
5,GGCGACCC,-0.0415 ± 0.017
6,ACGTTGGC,0.195 ± 0.017
7,CGTATTGC,-0.15 ± 0.014
8,CGGGAATA,-0.078 ± 0.027
9,AGCAGAAC,-0.287 ± 0.013
10,GGGGTTAC,-0.192 ± 0.024
11,CTTGGACC,-0.1866 ± 0.00072
12,CGGGCGAC,0.156 ± 0.0072
13,AGTCGTGA,0.169 ± 0.018
14,CTATGTGC,0.142 ± 0.047
15,ACTAGAGA,-0.268 ± 0.051
16,CCGGTCTC,-0.122 ± 0.01
17,AGCATGCG,-0.095 ± 0.047
18,AGTACTCA,-0.0666 ± 0.012
19,GGGGGTTA,-0.158 ± 0.1
20,CCGGGATA,-0.0952 ± 0.054
21,CGCCGTCC,-0.149 ± 0.026
22,GTACCGGA,-0.226 ± 0.049
23,CTACTATA,-0.348 ± 0.016
24,ACAAGGAA,-0.102 ± 0.11
25,GCGCGCAA,0.17 ± 0.025

row,Sequence,PBM E-score of 8-mer
1,ACAATCCC,0.0507 ± 0.0081
2,AAGTTGGT,0.00318 ± 0.069
3,CAAGTGTA,0.178 ± 0.035
4,AAGATGGG,-0.073 ± 0.026
5,CGTTCTAA,-0.0911 ± 0.12
6,TCACCCAA,0.146 ± 0.045
7,GCCGTCGA,-0.044 ± 0.08
8,GGCTCCCA,-0.0705 ± 0.028
9,ATGGAGGG,-0.0626 ± 0.039
10,ATTGCCGC,0.0867 ± 0.0053
11,CAACCACC,0.0716 ± 0.0078
12,AGTCCATG,0.0305 ± 0.037
13,ACCTGAAC,0.002 ± 0.024
14,GCTGATCC,-0.0935 ± 0.017
15,AGAATAAC,-0.00186 ± 0.026
16,AAAATATC,0.121 ± 0.063
17,CGGTACAA,-0.0942 ± 0.04
18,AGAAGCCT,-0.175 ± 0.026
19,CGGCCCGC,-0.191 ± 0.011
20,CGGTAGAG,0.0253 ± 0.0033
21,AGGCTGGC,-0.105 ± 0.011
22,AGGCCTTG,-0.324 ± 0.084
23,AAACAACG,-0.0631 ± 0.024
24,GAGGTCGA,-0.075 ± 0.079
25,GTGGATAA,0.00437 ± 0.013

row,Sequence,PBM E-score of 8-mer
1,AACAACCT,0.134 ± 0.01
2,AGGGTATC,-0.07494 ± 0.00061
3,AACACGTC,0.399 ± 0.021
4,GGTAGAAA,-0.0423 ± 0.066
5,GCATCTCC,-0.172 ± 0.042
6,CGCCAACC,0.197 ± 0.0065
7,ACACTCTC,0.361 ± 0.0087
8,AGCGAAAC,-0.0654 ± 0.014
9,CCGCCACA,0.143 ± 0.069
10,CTTTTTCC,-0.246 ± 0.052
11,AGATATAT,-0.0934 ± 0.11
12,ATTGATCA,-0.0998 ± 0.043
13,AGTGACCC,0.05099 ± 9.9e-05
14,CGCGATTA,0.258 ± 0.031
15,CCCAAACA,-0.167 ± 0.017
16,AATATCGC,0.255 ± 0.0089
17,CCACGCGC,0.194 ± 0.0076
18,CCGTTGTA,-0.058 ± 0.026
19,GCGTGTAC,0.0966 ± 0.026
20,GAGTTTCA,-0.0913 ± 0.042
21,GATTTCGC,0.288 ± 0.012
22,AGTACGTC,-0.0533 ± 0.09
23,AATACTTG,-0.0724 ± 0.093
24,CACGCAGC,-0.0161 ± 0.1
25,ATAGATCG,-0.00864 ± 0.015

row,Sequence,PBM E-score of 8-mer
1,CTCTAAAA,-0.108 ± 0.0074
2,CAAGTTAG,-0.0266 ± 0.021
3,GCAGCTAC,-0.038 ± 0.025
4,CGCCTAAA,0.124 ± 0.038
5,AGGTCAGC,-0.0928 ± 0.038
6,CCCATGCG,-0.212 ± 0.063
7,TATATCAA,-0.217 ± 0.045
8,AAGATTTA,0.023 ± 0.04
9,CCCAACAC,0.385 ± 0.0085
10,CACTATGA,0.155 ± 0.034
11,ACTATAAT,-0.22 ± 0.028
12,AGGAAATC,-0.104 ± 0.033
13,CCACAAAA,0.184 ± 0.022
14,ACGTTGCG,0.117 ± 0.016
15,CCTGTAAC,0.181 ± 0.0083
16,GCCATAGC,-0.087 ± 0.04
17,AAATCATC,0.12 ± 0.033
18,AAAAATGT,0.104 ± 0.079
19,AGACTCTG,-0.158 ± 0.024
20,AAGTAGCT,0.0198 ± 0.1
21,GTTGTATA,-0.15 ± 0.013
22,AAGAGGCA,-0.191 ± 0.024
23,AATGATCC,-0.152 ± 0.052
24,AGAACAAG,-0.0407 ± 0.016
25,CCAAGCAA,0.0742 ± 0.025

row,Sequence,PBM E-score of 8-mer
1,CACGTGCC,0.281 ± 0.026
2,AGTTAGAG,-0.203 ± 0.011
3,CTGTTTCC,-0.0891 ± 0.035
4,AGAATTGA,0.0476 ± 0.053
5,GTTAGTGA,0.182 ± 0.0042
6,ACGTGTGC,0.174 ± 0.035
7,AAAGTCGG,-0.156 ± 0.066
8,AGCAGTGG,-0.138 ± 0.0063
9,AGGTCTGA,-0.24 ± 0.038
10,TTATCCAA,0.0266 ± 0.0076
11,GACGGAAC,-0.117 ± 0.06
12,AACGCCGA,-0.0727 ± 0.06
13,CTGCGACC,0.146 ± 0.0092
14,AGCGGAAC,-0.0952 ± 0.07
15,ATAGCGGA,0.0349 ± 0.027
16,GGACAATA,-0.226 ± 0.033
17,CTAGCTTA,-0.0597 ± 0.019
18,GACAGCGC,0.0941 ± 0.072
19,ACTCGAGG,0.03 ± 0.075
20,AGAAAAAT,-0.0785 ± 0.11
21,CCTTGCCG,-0.0437 ± 0.064
22,CTTTCATC,-0.0647 ± 0.1
23,TCATACGA,-0.0175 ± 0.029
24,CGCGGCCC,-0.142 ± 0.063
25,GAGCTGAC,0.132 ± 0.004

row,Sequence,PBM E-score of 8-mer
1,CTTTAGCA,0.266 ± 0.061
2,CGGAAGAC,0.0312 ± 0.0091
3,ACATGTGG,0.0299 ± 0.045
4,AAGTTGGA,-0.0116 ± 0.045
5,GCCTTAAA,-0.218 ± 0.088
6,CATCAGAC,-0.156 ± 0.024
7,CACTATTA,0.168 ± 0.032
8,ACGCCCAT,0.025 ± 0.014
9,CGTTAGGA,-0.0458 ± 0.015
10,CGGTTTAA,-0.116 ± 0.04
11,CCATGAGG,-0.168 ± 0.03
12,GCAGAAAA,-0.0494 ± 0.066
13,ACCCATGG,-0.144 ± 0.079
14,CGATATTA,0.00496 ± 0.033
15,ATTACTGC,-0.00494 ± 0.021
16,AGCTCCCA,-0.308 ± 0.076
17,GTAGAGAA,-0.0935 ± 0.066
18,CCAGAATA,-0.00252 ± 0.053
19,AAAAACTC,-0.0683 ± 0.087
20,AACATCTA,-0.121 ± 0.0062
21,CCAACTAA,0.0318 ± 0.012
22,ACCGTGCA,-0.137 ± 0.0068
23,CACGGTCC,-0.0453 ± 0.0074
24,CCACTTCA,0.13 ± 0.034
25,CAGATTCA,-0.234 ± 0.082

row,Sequence,PBM E-score of 8-mer
1,ACCCTTCC,-0.135 ± 0.079
2,GTGGTAAA,0.227 ± 0.041
3,GATTCTGC,-0.138 ± 0.023
4,ACTTCGGC,0.095 ± 0.0012
5,GCGATCGA,-0.0723 ± 0.0095
6,ATCAAACG,-0.135 ± 0.021
7,ATCCCGAT,-0.139 ± 0.05
8,GCTAATTA,0.166 ± 0.088
9,ATTGAAAA,-0.184 ± 0.035
10,GAGTTTGC,-0.0513 ± 0.056
11,CTAAGCTC,-0.141 ± 0.061
12,ATGGTGCG,0.187 ± 0.036
13,ACGGCCCT,-0.141 ± 0.027
14,CACTTAAG,0.255 ± 0.012
15,GCCCATGA,-0.12 ± 0.034
16,GCACGCCC,0.0828 ± 0.071
17,AATCATGT,-0.202 ± 0.041
18,GGTCCTCA,-0.0641 ± 0.0052
19,ACATAACA,0.232 ± 0.0052
20,AGGTGACA,0.4826 ± 0.00079
21,AATGGCAG,-0.05083 ± 0.0002
22,AGTCACCA,0.0611 ± 0.064
23,ATATTTGA,-0.129 ± 0.038
24,ATGCCTTA,-0.312 ± 0.037
25,CCCGTCTA,-0.121 ± 0.043

row,Sequence,PBM E-score of 8-mer
1,CGATTAAC,0.0479 ± 0.014
2,CATTACCG,-0.0229 ± 0.033
3,GAGGGGAC,-0.243 ± 0.049
4,ACAGACCG,-0.101 ± 0.051
5,ACACATCA,0.299 ± 0.017
6,ACTGTCTC,-0.0454 ± 0.11
7,TCTGGACA,-0.2 ± 0.021
8,ATTGTGCG,0.163 ± 0.019
9,ACAGAGCG,-0.0671 ± 0.04
10,ACTTAAGT,-0.0522 ± 0.021
11,AGGATTCG,-0.143 ± 0.095
12,AGCTTCGA,-0.105 ± 0.042
13,CATGAGTA,0.0426 ± 0.016
14,ATCACAGC,0.211 ± 0.024
15,AATGGGCC,-0.107 ± 0.042
16,CTGTCATA,0.151 ± 0.011
17,ACCGGTCG,-0.0124 ± 0.054
18,CCCATCAC,0.265 ± 0.0027
19,CGAGAAGC,-0.0676 ± 0.057
